Experimental data from PMC4336329 (PLoS ONE, 2015).
In all, about 310,000 compounds went through this assay and about 14,000 (4.5%) showed an effect of 50% or more. Effects have a minus sign here. Some of the results follow.

Each compound was assayed against human ether-à-go-go-related gene (hERG) potassium channel (human, UniProt Q12809) (assay: primary screen, population patch clamp on CHO cells stably expressing hERG).
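Note: peak tail current of the secondary pulse compared with the same well before compound.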

Sequence of human ether-à-go-go-related gene (hERG) potassium channel (Q12809 whole entry, looked up): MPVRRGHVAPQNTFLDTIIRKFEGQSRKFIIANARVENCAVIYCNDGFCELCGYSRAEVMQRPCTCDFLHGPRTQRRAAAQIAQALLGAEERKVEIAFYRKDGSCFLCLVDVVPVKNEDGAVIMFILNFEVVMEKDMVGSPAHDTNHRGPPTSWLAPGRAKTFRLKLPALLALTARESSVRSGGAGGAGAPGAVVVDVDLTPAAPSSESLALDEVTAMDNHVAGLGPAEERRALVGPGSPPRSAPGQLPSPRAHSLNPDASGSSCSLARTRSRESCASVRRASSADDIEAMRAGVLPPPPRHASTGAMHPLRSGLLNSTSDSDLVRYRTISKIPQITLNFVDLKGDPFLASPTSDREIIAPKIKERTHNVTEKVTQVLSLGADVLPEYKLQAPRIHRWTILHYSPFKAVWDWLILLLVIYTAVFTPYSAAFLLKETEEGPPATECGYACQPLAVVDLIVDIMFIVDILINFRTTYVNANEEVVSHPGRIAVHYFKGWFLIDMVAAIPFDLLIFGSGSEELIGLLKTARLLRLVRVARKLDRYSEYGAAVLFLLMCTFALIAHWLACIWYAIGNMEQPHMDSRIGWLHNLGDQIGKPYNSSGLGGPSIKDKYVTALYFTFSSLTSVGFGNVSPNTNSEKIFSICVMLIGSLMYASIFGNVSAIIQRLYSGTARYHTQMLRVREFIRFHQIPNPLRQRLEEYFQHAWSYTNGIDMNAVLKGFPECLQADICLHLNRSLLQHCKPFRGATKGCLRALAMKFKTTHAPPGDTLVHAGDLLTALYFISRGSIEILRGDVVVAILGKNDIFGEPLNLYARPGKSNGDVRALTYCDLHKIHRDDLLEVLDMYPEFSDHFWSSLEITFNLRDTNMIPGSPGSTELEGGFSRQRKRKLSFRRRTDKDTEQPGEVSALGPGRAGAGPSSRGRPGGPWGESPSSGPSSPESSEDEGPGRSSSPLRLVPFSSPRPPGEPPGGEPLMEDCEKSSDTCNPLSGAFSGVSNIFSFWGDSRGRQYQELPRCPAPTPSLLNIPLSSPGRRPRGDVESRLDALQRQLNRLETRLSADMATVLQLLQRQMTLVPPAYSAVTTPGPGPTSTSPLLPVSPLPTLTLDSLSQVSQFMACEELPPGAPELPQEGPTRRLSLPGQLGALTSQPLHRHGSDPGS

Compound	hERG current change (%, negative = inhibition) at 10uM
Cc1nc(N[C@@H](Cc2ccccc2)C(=O)O)c2oc3ccccc3c2n1	11.6%
Cc1ccc2oc3nc(C)c(C(=O)Nc4cccc(C(F)(F)F)c4)cc3c(=O)c2c1	6.48%
Cc1cc(S(=O)(=O)Nc2c(NC3CCCCC3)c3ccccc3oc2=O)ccc1F	8.4%
Cc1c(C(=O)c2ccc(N(C)C)cc2)c2ccccn2c1CCC#N	-5.52%
CC(C)c1ccc(/C=C2\CC/C(=C\C=N\N(C)C)C2=O)cc1	7.74%
Cc1ccc(-c2nc(-c3ccc(Cl)cc3)sc2CC(=O)O)c(C)c1	26.5%
C=CCNC(=S)NNC(=O)c1ccc(OC(C)C)cc1	31.9%
CCc1ccc(NC(=O)C/C(C)=N/NC(=O)OCc2ccc(OC)cc2)cc1	-38.1%
CC1=CC(C)(C)N2C(=O)C3(C(C#N)=C(N)OC4=C3C(=O)CC(C)(C)C4)c3cc(C)cc1c32 (centres unmarked)	3.59%
CCOC(=O)c1c(NCc2ccc3c(c2)OCO3)c2ccccc2[nH]c1=O	-10.8%
CC(=O)N(NC(N)=O)C(C)CC(=O)C1C(C)C=CCC1(C)C (centres unmarked)	13.4%
CCOc1ccc(CC(=NCCc2ccccc2)C2=C(O)CC(C)(C)CC2=O)cc1OCC	-21.3%
C/C(=N/OC(=O)c1ccc(C)cc1)c1ccc(N2C(=O)C3CCCCC3C2=O)cc1 (centres unmarked)	16%
Cc1ccc(C(=O)O)cc1N1C(=O)CCCC1=O	24%
CCOc1ccc(C(=O)NC2CCN(CC(=O)NCc3cccs3)CC2)cc1	-43.2%
CC1CC(C)CN(C(=O)COC(=O)Cc2ccc(Cl)cc2)C1 (centres unmarked)	-1.77%
Cc1ccc(/C=C2\CCCC3=C2NC(=S)NC3c2ccc(C)cc2)cc1 (centres unmarked)	-18.9%
O=C(Nc1ccccc1C(=O)NCCN1CCOCC1)c1ccco1	-10.8%
COc1cc(NC(=O)CN2C(=O)c3ccccc3S2(=O)=O)cc(OC)c1	-7.97%
Nc1ccccc1SCC(=O)Nc1nccs1	23%
COCCOC(=O)C1=C(C)NC(=O)NC1c1ccco1 (centres unmarked)	2.47%
O=C(CN1CCN(S(=O)(=O)c2ccccc2)CC1)Nc1ccnn1C1CCCC1	-27.3%

Compound	hERG current change (%, negative = inhibition) at 10uM
CC1CCCCC1NC(=O)c1cc(=O)[nH]c2ccccc12 (centres unmarked)	20.2%
CCc1ccc2c(c1)C(c1cccs1)=NNC(c1cccnc1)=N2	-48.6%
O=C(Nc1nc(-c2ccc(S(=O)(=O)N3CCCCCC3)cc2)cs1)c1ccccc1	-1.54%
O=C(O)C1CCCCC1C(=O)Nc1cccc(Br)c1 (centres unmarked)	2.78%
NNc1n[nH]c(=S)n1N	15.2%
O=C(CCn1c(=O)c2ccccc2n(CC(=O)N2CCN(c3ccccc3)CC2)c1=O)NCc1ccco1	-21.1%
COc1cccc(C(c2c(O)nc(SC)n(C)c2=O)c2c(O)nc(SC)n(C)c2=O)c1	0.717%
O=C1/C(=C\c2ccc3ccccc3c2)CCCc2ccccc21	-21.7%
CCn1cnc2cc(NCc3ccc(OC)cc3)ccc21	-39.4%
Cc1ccc(NC(=O)COc2cccc3ccccc23)c(O)c1	6.89%
CCOC(CNC(=O)CCc1c(C)nc2nc(C)nn2c1C)OCC	3.54%
Cc1ccc(C(=O)N2CCOCC2)cc1S(=O)(=O)Nc1cccc(C)c1C	2.37%
COc1ccc(/C=N/Nc2nc(-c3cccc(S(=O)(=O)N4CCCC4)c3)cs2)cc1OC	16.8%
O=C(O)c1ccccc1N1C(=O)C2C3c4ccccc4C(Br)(c4ccccc43)C2C1=O (centres unmarked)	18.4%
COc1cc(N2CCCC2)ccc1[N+](=O)[O-]	-6.45%
C/C(=N\NC(=O)c1cccnc1)c1nnn(-c2nonc2N)c1C	11.7%
CCCC(C(=O)NC(C)(C)C)N(CC1CCCO1)C(=O)c1snc(C(N)=O)c1N (centres unmarked)	-39.2%
O=c1[nH]c(/C(Cl)=C/c2c(F)cccc2Cl)nc2cc(Cl)ccc12	-8.5%
O=C(/C=C/c1cc2c(cc1Br)OCO2)NCc1ccc(Cl)cc1	-0.662%
COc1cc(NC(=O)c2ccc3c(c2)OCO3)ccc1NC(=O)c1ccco1	10.4%
CCC1Oc2ccccc2N(CC(=O)NCc2cccs2)C1=O (centres unmarked)	-5.48%
COc1ccccc1Sc1nc(-c2ccccc2)ncc1OC	24.3%
